Assay results reported in PubChem BioAssay AID1345083 (National Center for Advancing Translational Sciences (NCATS), 2018).
The whole screen tested about 94,000 compounds, of which about 6,200 (6.6%) were called active. The inconclusive results got no clear call from the source; some entries with a clear call stand among them for comparison. Calls follow the shape of the dose curve; as a rule, active = well fitted inhibition curve with a large enough effect; inconclusive = small, poorly fitted or top-dose-only effect; inactive = flat fitted curve, though single readings scatter. Potencies beside an inconclusive call are fits to weak or partial responses and may not hold up.

assay: Cytotoxic Profiling in HEK 293 Cell Line of Diverse Libraries Using Quantitative High-Throughput Screening; details: HEK 293 viability, ATP luminescence (CellTiter-Glo), 48-72 h; activity change, negative = cytotoxicity: at 115 µM (top of the series) unless noted; series mostly up to 115 µM; also: nearly all actives have a fitted effect of over 60% in size
In short: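 Pintool-delivered compounds were incubated with HEK 293 cells (250 cells/well) at 37 degree Celsius for 48 or 72 hr. ATP-dependent luminescence (CellTiter-Glo) then reported remaining viable cells.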
% is scaled to controls: 0 for no effect and ±100 for the full control effect; potency is read from the fitted curve at half-maximal effect; tags tell the direction and shape of the fitted curve.

Structure (SMILES) | Potency | activity change, negative = cytotoxicity | outcome
CCOC(=O)N1CCC(NC(=O)c2ccc(OC3CCN(C(=O)C4CC4)CC3)cc2)CC1 | inconclusive: 35.5 µM [inhibitor, partial curve, poor fit] | – | –
CN1CCNc2nc(COc3ccc(F)cc3)n(Cc3ccccc3)c2C1=O | inconclusive: 89.1 µM [inhibitor, partial curve, poor fit] | – | –
CCc1cc(=O)n(CC(=O)Nc2ccc3c(c2)OCO3)c(-c2cccc(F)c2)n1 | inconclusive: 20 µM [inhibitor, full curve, poor fit] | – | –
O=C1COc2ccc(Oc3ccccc3)nc2CN1Cc1ccccc1 | inconclusive: 39.8 µM [inhibitor, partial curve] | – | –
CC1=C[C@@H](CNC(=O)c2ccccc2)[C@H](C(C)C)C[C@H]1CC(=O)NCc1cccnc1 | inconclusive: 100 µM [inhibitor, partial curve] | – | –
CCNc1ncnc2sc3c(c12)CCN(Cc1ccc[nH]1)C3 | inconclusive: 35.5 µM [inhibitor, full curve] | – | –
O=C1NCc2ccccc2CC12CCN(CC1=CCCCC1)C2 (stereo unspecified) | – | inactive: -22.9% | –
Cc1ccc(Nc2ncncc2-c2nc(-c3ccccc3)no2)c(Cl)c1 | – | inactive: -15% | –
CN(C)C(=O)N1CCCn2nc(CNC(=O)C(=O)c3ccco3)cc2C1 | inconclusive: 39.8 µM [inhibitor, single point] | – | –
CN(Cc1ccccc1)C(=O)c1cc(-c2ccncc2)cn1C | inconclusive: 56.2 µM [inhibitor, partial curve, poor fit] | – | –
O=C1N(c2ccccc2)c2ccccc2C12CCN(Cc1cccc3ccccc13)C2 (stereo unspecified) | inconclusive: 50.1 µM [inhibitor, partial curve, poor fit] | – | –
O=C(c1ccccc1)N1CCCC(C(=O)N2CCC(c3nc4ncccc4[nH]3)CC2)C1 (stereo unspecified) | – | inactive: -7.93% | –
FC(F)(F)c1cccc(CCC2CCCN(Cc3cccnc3)C2)c1 (stereo unspecified) | inconclusive: 50.1 µM [inhibitor, partial curve, poor fit] | – | –
O=C(c1cccc(Cl)c1)N1CCc2nc(-c3ccc(Cl)cc3)nc(-c3ccccc3)c2C1 | inconclusive: 79.4 µM [inhibitor, partial curve, poor fit] | – | –
COc1cccc(C2CCN(Cc3cn(-c4ccccc4)nn3)C2)c1OC (stereo unspecified) | active: 79.4 µM | – | –
Cc1nn2c(c1-c1ccccc1OCc1ccccc1)N(C(=O)c1cccnc1)CCC2 | – | inactive: -7.4% [at 172 µM] | –
CC(C)Oc1ccc(CNC(=O)C2(Cc3cccnc3)CCCCC(=O)N2)cc1 (stereo unspecified) | inconclusive: 79.4 µM [inhibitor, single point] | – | –
O=C(Nc1ccncn1)[C@@H]1C[C@@H](c2ccc(F)cc2)N(Cc2ccccc2)C1 | active: 100 µM | – | –
CN(C)c1nc(-c2ccccc2)nc2c1CCN(C(=O)[C@@H](O)c1ccccc1)C2 | inconclusive: 50.1 µM [inhibitor, partial curve, poor fit] | – | –
O=C(NCC(F)F)C1CCCCN1Cc1ccc(-c2ccsc2)cc1 (stereo unspecified) | active: 39.8 µM | – | –
C=CCN1CCN(C(=O)[C@@]23CCCC[C@H]2N(CCC(C)C)C(=O)CC3)CC1 | inconclusive: 100 µM [inhibitor, single point] | – | –
COc1cccc(CN2CCC3(COc4ccccc4C(=O)N3)C2)c1 (stereo unspecified) | active: 89.1 µM | – | –

Structure (SMILES) | Potency | activity change, negative = cytotoxicity | outcome
COCc1nncn1C1CCN(C(=O)c2ccc(OC)cc2)CC1 | – | inactive: 4.09% | –
O=C1Nc2ccccc2OCC12CCN(Cc1ccc(F)cc1)CC2 | – | inactive: 0.813% | –
O=C(NCc1ccc(Cl)cc1)c1cn2cc(-c3ccccc3)sc2n1 | inconclusive: 89.1 µM [inhibitor, single point] | – | –
O=C(NCCc1ccc(Cl)cc1)c1ccc2nnc(-c3cc[nH]c3)n2c1 | inconclusive: 11.2 µM [inhibitor, full curve, poor fit] | – | –
Cc1cccc(NC(=O)CN2C(=O)NC3(CCC(C)CC3)C2=O)c1C (stereo unspecified) | inconclusive: 56.2 µM [inhibitor, partial curve, poor fit] | – | –
O=C(NCCc1ccc(Cl)cc1)c1cn2cc(-c3ccc(F)cc3)sc2n1 | inconclusive: 50.1 µM [inhibitor, partial curve, poor fit] | – | –
O=C(N[C@@H]1CN(Cc2c[nH]c3ccccc23)C[C@H]1CO)c1ccccc1 | inconclusive: 100 µM [inhibitor, single point] | – | –
COc1ccc(C(=O)N2CCCC(n3cc(-c4nc(C(C)C)no4)nn3)C2)cc1 (stereo unspecified) | – | inactive: -28.8% | –
Cn1c(CNC(=O)CN2C(=O)C3(CCCCC3)C2c2ccccc2)nc2ccccc21 (stereo unspecified) | inconclusive: 50.1 µM [inhibitor, partial curve, poor fit] | – | –
Cc1nn(Cc2ccccc2)c(C)c1[C@@H]1C=C[C@@H](NC(=O)NC2CCCCC2)C1 | inconclusive: 70.8 µM [inhibitor, partial curve, poor fit] | – | –
Cn1cncc1CNC(=O)c1nc(-c2cccc(N3CCOCC3)c2)cc2c1ccn2C | inconclusive: 100 µM [inhibitor, partial curve, poor fit] | – | –
COc1ccccc1-c1nnc2ccc(C(=O)NCc3ccccc3)cn12 | – | inactive: -19.5% | –
O=C1CC(c2ccccc2)N(Cc2ccncc2)CCCN(Cc2cccnc2)CCN1 (stereo unspecified) | inconclusive: 14.1 µM [inhibitor, full curve, poor fit] | – | –
COc1ccc(-c2nc(C3CC3)nc3c2CCN([S+](=O)([O-])c2cccc(C(F)(F)F)c2)CC3)cc1 | inconclusive: 50.1 µM [inhibitor, partial curve, poor fit] | – | –
COc1ccc(-c2c(C(=O)NCc3ccc(Cl)cc3)nc3sccn23)cc1 | inconclusive: 79.4 µM [inhibitor, single point] | – | –
COc1ccc(CCNC(=O)C2CCCN(Cc3cccc(-c4cccc(C)c4)c3)C2)cc1 (stereo unspecified) | active: 22.4 µM | – | –
Cc1ccc(-c2cn3cc(C(=O)NCc4cccc(Cl)c4)nc3s2)cc1 | inconclusive: 79.4 µM [inhibitor, partial curve, poor fit] | – | –
Cc1ccc(-c2noc([C@@H]3Cc4nc[nH]c4CN3Cc3cccs3)n2)cc1 | active: 79.4 µM | – | –
O=C(CNC(=O)c1ccc(-c2cnc3ccccc3c2)cc1)NC1CCCCCC1 | inconclusive: 50.1 µM [inhibitor, partial curve, poor fit] | – | –
COc1ccc(-c2nc(C)nc3c2CN([S+](=O)([O-])c2ccccc2)CC3)cc1 | – | – | inactive
O=C(CCCc1ccccc1)N1CCCCCC1c1nc(C2CC2)no1 (stereo unspecified) | active: 50.1 µM | – | –
O=C(NCc1ccccc1Cl)c1ccc2nnc(CC3CC3)n2c1 | inconclusive: 89.1 µM [inhibitor, single point] | – | –

Structure (SMILES) | Potency | activity change, negative = cytotoxicity | outcome
CCOc1ccc(NC(=O)Cn2c(C)cc3nc4n(c(=O)c32)CCCCC4)cc1 | inconclusive: 89.1 µM [inhibitor, single point] | – | –
O=C(C[C@@H]1CCNC[C@@H]1Cc1cc(-c2ccc(F)cc2)on1)NCc1ccco1 | inconclusive: 126 µM [inhibitor, single point] | – | –
CCOC(=O)c1ccccc1NC(=O)Cn1c(N(C)Cc2ccccc2)nc(C)cc1=O | – | inactive: -16.4% | –
COC(=O)[C@@H]1Cc2c([nH]c3ccccc23)[C@H]2C[C@@H](NCCN3CCOCC3)C[C@@H](c3ccc(F)c(F)c3)N21 | inconclusive: 20 µM [inhibitor, full curve, poor fit] | – | –
O=C(Nc1ccc(F)c(Cl)c1)c1cc2n(n1)CC(c1ccc3c(c1)OCO3)OC2 (stereo unspecified) | active: 44.7 µM | – | –
Cc1ccccc1CC(=O)NC1CCN(c2cc(-c3ccccc3)[nH]n2)C1 (stereo unspecified) | inconclusive: 35.5 µM [inhibitor, partial curve] | – | –
Cc1ccc(C)c(OCC(=O)c2ccc3c(c2)N(CCCC(=O)NCC2CC2)C(=O)CO3)c1 | inconclusive: 63.1 µM [inhibitor, partial curve, poor fit] | – | –
Cc1ccc(C)c(NC(=O)C2CCN(C(=O)c3ncn4c3COC(c3ccc(F)cc3)C4)CC2)c1 (stereo unspecified) | – | inactive: -13.6% | –
COc1ccc(C(=O)N2CCN(c3nnc4cccc(C)n34)CC2)cc1F | – | inactive: 1.32% | –
Cc1cccc(-c2cccc(CN3CCC(N[S+](=O)([O-])c4cccc(C(F)(F)F)c4)CC3)c2)c1 | inconclusive: 20 µM [inhibitor, full curve, poor fit] | – | –
COCC(=O)N1CCC(C(=O)NCc2cc(-c3cccc(F)c3)no2)CC1 | – | inactive: -10.8% | –
CC(=O)c1ccc(NC(=O)N2Cc3[nH]cnc3C[C@H]2c2nc(-c3ccccc3)no2)cc1 | – | inactive: 0.0373% [at 172 µM] | –
O=C(Cc1cccc(F)c1)N1CCN(c2cc(-c3cccs3)[nH]n2)CC1 | inconclusive: 79.4 µM [inhibitor, partial curve] | – | –
O=C(NCc1ccncc1)c1cc(C2CC2)nc2onc(C3CCCN3)c12 (stereo unspecified) | – | inactive: -13.8% | –
O=C(CN1C(=O)NC2(CCCCC2)C1=O)Nc1ccc(F)cc1 | inconclusive: 89.1 µM [inhibitor, single point] | – | –
OC1(CN2CCCCC2)CCN(Cc2ccc(Cl)cc2)C1 (stereo unspecified) | inconclusive: 31.6 µM [inhibitor, partial curve, poor fit] | – | –
CCc1ccc(NC(=O)c2ccc3c(c2)N(C)C2CCCCN2C3=O)cc1 (stereo unspecified) | inconclusive: 44.7 µM [inhibitor, partial curve, poor fit] | – | –
Cc1ccc(C(=O)NC2CCN(c3cc(C(F)(F)F)ncn3)CC2)s1 | inconclusive: 70.8 µM [inhibitor, single point] | – | –
CN1CCN(c2nc3c(c(=O)[nH]2)CCN(Cc2ccc(Cl)c(F)c2)CC3)CC1 | – | inactive: -6.81% | –
CCc1nccn1CCCNc1nc(CCN)nc2ccccc12 | – | inactive: -7.7% | –
N#Cc1cccc(-c2cn3c(n2)N(C(=O)Cc2cccs2)CCC3)c1 | – | inactive: -29.1% | –
c1ccc(-c2noc(-c3nc(-c4ccccn4)no3)n2)cc1 | – | inactive: -6.34% | –
